Measured values: the supplement of paper PMC11417369
Some of the results follow.

test system: PfSIP2 AP2 domain 1 (GST-tagged); experiment: gcPBM binding intensity (ln(normalized median fluorescence intensity)); higher = stronger DNA binding
How it was run: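 After 1 h on an Agilent 4 × 180k array of primer-extended double-stranded 36-bp intergenic genomic probes and negative controls, bound GST-tagged P. falciparum DNA-binding domains were detected with Alexa488 anti-GST antibody and scanned at 488 nm. The domains had been expressed in E. coli, and binding took place in 1× PBS with 1% milk, 0.2 mg/ml BSA, 0.5% salmon testes DNA and 0.03% Triton X-100. Binding intensity is the highest Masliner-normalised natural-log median intensity across replicate spots of either probe orientation.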

Row | Sequence | gcPBM binding intensity (ln)
1 | TCAAATAATTTGTTGACACACACACCCACATACATA [CACACA_site8717] | 7.12
2 | ATATTTTTTACTATTACACACAAGGGATTATTATTT [CACACA_site3915] | 7.35
3 | ACCTTATAAAAAAAAAGTACATATATAAATAATAAA [XGTACX_site4338] | 7.79
4 | AAACAATAAAAGATTACACACATATATAGCATATAT [CACACA_site1698] | 6.69
5 | TATACATAATATATATGTACATATATTCTTTATTTT [XGTACX_site4565] | 7.16
6 | TATTTATGCACGCGTGCACACACATATGAAAAAAGG [CACACA_site9090] | 10.4
7 | AATTGCTAATGGTACGAACACACATATAAAGATGCA [CACACA_site8634] | 7.04
8 | CTTTCATATGTTTTAACACACACGCATATATTATAG [CACACA_site7033] | 7.08
9 | AAGAATGTTAACGTTGCACACAAAAAAAAAGTATAC [CACACA_site8763] | 7.06
10 | ATATAAGTTATTTTATACAAAAAAAAAAAAAAAAAT [CACACA_negctrl_site1190] | 6.89
11 | AAAAAAAAAAAAAATACACACACATATATATATATA [CACACA_site8698] | 9.38
12 | GTAAACAATTATGAACGTACATAAAATAAATGAACA [XGTACX_site7159] | 7.1
13 | TGTCTTTTTAAGTTTTGTACATAAATATATTTCAAA [XGTACX_site427] | 7.27
14 | AGTATACACAGACACACACACACATATATATATATA [CACACA_site8510] | 9.37
15 | TTTTTATGGACTATGGTGCATTATATATAAATGAAA [GTGCAC_site9557] | 10.6
16 | TAATATTATATAAATTGTACTATTTTTTCCTTATTC [XGTACX_site5314] | 6.82
17 | TAATAAATAAATGACACACACACACCCAAAAAAAAA [CACACA_site2623] | 7.04
18 | TTATTAACCTAAATTAGTACATATAATATAAAAAAT [XGTACX_site8661] | 7.26
19 | AGCTATGTATTCTACACACACATACACCCATATATA [CACACA_site5827] | 7.16

Row | Sequence | gcPBM binding intensity (ln)
20 | TTGAAATGCATGAACACACACAGCTATAAATGCATA [CACACA_site968] | 6.94
21 | AAAATATTATCTAATTGTACTTATATAACTATATAT [XGTACX_site5699] | 7.09
22 | ATACTAAGGAGAAAAGAAAAGTGAATTTATTCTATA [CACACA_negctrl_site1792] | 6.63
23 | AAATTTATGAACCTAGTGCAGAAATTAAAAAGATGA [GTGCAC_site9396] | 7.65
24 | ATTCAATATTTATACACACACACTTTTAATAATTAA [CACACA_site7725] | 7.2
25 | ATATATATAATAAATACACACATTTATATAGATAAA [CACACA_site3254] | 7.39
26 | AAACATTTATCAATGAATCTTTTAATAAGTGTAAAG [XGTACX_negctrl_site80] | 6.79
27 | TCATTCAGTTTTATCACACACAATCAAACATATATA [CACACA_site2742] | 7.17
28 | AATATAAGGATATATACACACATAAATACATACATA [CACACA_site7859] | 6.98
29 | TATTTTTTTAGATATACATGCAAAAACAGAAGAAAT [TGCATGCA_site283] | 7.37
30 | TCAACATTCATTGGAAGTACTCACTCCCATATAATA [XGTACX_site5211] | 6.88
31 | AATATGTCATATATGTGTACATATGCACAGATATTA [XGTACX_site951] | 7.2
32 | TGAACTTTAAACCCTGAACACACACTAATACACCCA [CACACA_site7970] | 7.12
33 | ATAAAAAGAAATCCAATACACACCTTCAAAATGGGT [CACACA_site1622] | 6.92
34 | CATAAATGTCTCACATGTACATATGCATTTTTAAAA [XGTACX_site3194] | 7.11
35 | TATATATAATATTGCACACAAAATTAAAAGTAAATA [CACACA_site19] | 7.05
36 | CAACTCTTATTTAATTATATGAATTAATTTATATGA [CACACA_negctrl_site200] | 6.7
37 | TGCATAAATTTATGCACACATAAAAAAAAAAAAAAA [CACACA_site2923] | 7.88
38 | TTAAATACTAAAAAGTGTACACATACATAAAAAATT [XGTACX_site6261] | 7.32

Row | Sequence | gcPBM binding intensity (ln)
39 | ATTATGTTAATAATATGTACATATATCTACATATAT [XGTACX_site7978] | 6.93
40 | ATTATTTTGTTTATTACATGCAGGTGTATATTACAG [TGCATGCA_site723] | 7.2
41 | GAGTATATTTATATTGCACACAATTTTTTTATTTTT [CACACA_site2644] | 6.85
42 | ACATGAATTTATATGTGTACTAACTATATTCTTAAA [XGTACX_site5966] | 6.92
43 | TATCTGTATTTATTCACACATATAAAATATAATTAA [CACACA_site5560] | 7.19
44 | ATGAATAAATAGGTCACACACAAATATTTATAAATA [CACACA_site7186] | 7.03
45 | TCTGGCATATAATATTGTACACATATATATATATAT [XGTACX_site8182] | 8.73
46 | TATATACAATATAGGTGTACATTTTTTTATCTATTT [XGTACX_site8431] | 7.43
47 | AACGGGGGTAGTTTTATGCACACGTTTATTAATGCT [CACACA_site3173] | 7.88
48 | GATATGAATATAGGTTGTACTATATATAAAGTATGT [XGTACX_site1877] | 7.21
49 | TATATGTTAATTTTTTTTTTTTTTTTTTTTTTTATA [CACACA_negctrl_site62] | 6.61
50 | AAAGTACAAGTATAATCACACGTGTCTATTATATAC [CACACA_site4507] | 6.77
51 | AATATCTTAGTGGATACACACATATAAATGTGTATT [CACACA_site6367] | 6.75
52 | CTTTCAATTTTTTTCTGTACCAATAAAAAATATAAA [XGTACX_site2120] | 7.18
53 | ATAATGTTTTATAATACACACATTATATATATAAAT [CACACA_site6101] | 6.9
54 | ATATTTATGTAAAAAAGTACATACAATTATATATGT [XGTACX_site3750] | 6.97
55 | GATTACAAAAAAAATACACACAAAAAAAAAAAGGAA [CACACA_site2096] | 6.99
56 | ACACATACATACATATGTACATATATACATATATAC [XGTACX_site5559] | 7.46
